According to the supplement of paper PMC12217912:
The list shows a part of the results. Sequences were assembled here from the parent chain. Values near 0.05 are background.

B1: TEV protease; numbered along this chain (parent)
chain: MGESLFKGPRDYNPISSSICHLTNESDGHTTSLYGIGFGPFIITNKHLFRRNNGTLVVQSLHGVFKVKDTTTLQQHLVDGRDMIIIRMPKDFPPFPQKLKFREPQREERICLVTTNFQTKSMSSMVSDTSCTFPSGDGIFWKHWIQTKDGQCGSPLVSTRDGFIVGIHSASNFTNTNNYFTSVPKNFMELLTNQEAQQWVSGWRLNADSVLWGGHKVFMVKPEEPFQPVKEATQL

Variants of: B1
Assay: raw area under fraction-flipped curve 0-4 h after induction (AUC4h, not background-subtracted), DNA-recorder readout of cleavage of the substrate (dimensionless); higher = more cleavage of the substrate by the protease variant
Settings: temperature: 34 °C; time window: 0-4 h after rhamnose induction
Procedure: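 In vivo DNA recorder in E. coli TOP10(DE3) ΔrhaA at 34 °C. Each TEVp single-site mutant (parent TEVp 0) is paired with a single-site variant of the 7-mer TEVs (canonical ENLYFQ|S). The substrate sits between flexible linkers in a Bxb1-sfGFP-TEVs-SsrA fusion, so cleavage stabilises Bxb1 and speeds flipping of a recombination array, read by NGS. The value is the raw area under the fraction-flipped curve over 0-4 h after rhamnose induction (AUC4h), with ≥20 reads per time point. It is not background-subtracted; inactive controls average about 0.047.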
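Also: Bxb1 expression induced with 0.2% (w/v) L-rhamnose at OD600 near 0.5, cultures sampled hourly, flipped fraction per protease–substrate barcode pair counted by paired-end Illumina sequencing.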

Row | Variant | area with substrate EALYFQS | area with substrate ECLYFQS | area with substrate EDLYFQS | area with substrate EELYFQS | area with substrate EHLYFQS | area with substrate EILYFQS | area with substrate EKLYFQS | area with substrate EMLYFQS | area with substrate EPLYFQS | area with substrate EQLYFQS | area with substrate ESLYFQS | area with substrate ETLYFQS | area with substrate EVLYFQS | area with substrate EYLYFQS | area with substrate EFLYFQS | area with substrate ELLYFQS | area with substrate ERLYFQS | area with substrate EWLYFQS | area with substrate EGLYFQS
1 | MGESLFKGPRDYNPISSSICHLTNESDGHTTSLYGIGFGPFIITNKHLFRRNNGTLVVQSLHGVFKVKDTTTLQQHLVDGRDMIIIRMPKDFPPFPQKLKFREPQREERICLVTTNFQTKSMSSMVSDTSCTFPSGDGIFWKHWIQTKDGQCGSPLVSTRDGFIVGIHSASNFTNTNNYFTSVPTNFMELLTNQEAQQWVSGWRLNADSVLWGGHKVFMVKPEEPFQPVKEATQL [K185T] | 0.11 | 0.0842 | 0.138 | 0.131 | 0.0904 | 0.0948 | 0.106 | 0.118 | 0.106 | 0.106 | 0.0945 | 0.108 | 0.0909 | 0.104 | – | – | – | – | –
2 | MGESLFKGPRDYNPISSSICHLTNESDGHTTSLYGIGFGPFIITNKHLFRRNNGTLVVQSLHGVFKVKDTTTLQQHLVDGRDMIIIRMPKDFPPFPQKLKFREPQREERICLVTTNFQTKSMSSMVSDTSCTFPSGDGIFWKHWIQTKDGQCGSPLVSTRDGFIVGIHSASNFTNTANYFTSVPKNFMELLTNQEAQQWVSGWRLNADSVLWGGHKVFMVKPEEPFQPVKEATQL [N177A] | 0.116 | 0.0978 | 0.13 | 0.113 | – | 0.0784 | 0.101 | 0.112 | – | 0.161 | 0.104 | 0.0994 | 0.0929 | 0.082 | 0.108 | 0.0817 | 0.0881 | 0.105 | –
3 | MGESLFKGPRDYNPISSSICHLTNESDGHTTSLYGIGFGPFIITNKHLFRRNNGTLVVQSLHGVFKVKDTTTLQQHLVDGRDMIIIRMPKDFPPFPQKLKFREPQREERICLVTTNFQTKSMSSMVSDTSCTFPSGDGIFWKHWIQTKDGQCGSPLVSTRDGFIVGIHSASNFTNTHNYFTSVPKNFMELLTNQEAQQWVSGWRLNADSVLWGGHKVFMVKPEEPFQPVKEATQL [N177H] | 0.0947 | 0.0971 | 0.108 | – | 0.0826 | 0.0719 | 0.0849 | 0.092 | 0.125 | 0.093 | 0.0857 | – | 0.0779 | – | 0.0847 | 0.0731 | 0.0781 | – | 0.0793
4 | MGESLFKGPRDYNPISSSICHLTNESDGHTTSLYGIGFGPFIITNKHLFRRNNGTLVVQSLHGVFKVKDTTTLQQHLVDGRDMIIIRMPKDFPPFPQKLKFREPQREERICLVTTNFQTKSMSSMVSDTSCTFPSGDGIFWKHWIQTKDGQCGSPLVSTRDGFIVGIHSASNFTNTNNYFTSVPKNFMELLTNQEAQIWVSGWRLNADSVLWGGHKVFMVKPEEPFQPVKEATQL [Q198I] | 0.124 | 0.0871 | – | – | – | 0.0763 | 0.0971 | 0.0998 | 0.121 | 0.078 | 0.0904 | 0.104 | 0.0799 | 0.084 | – | – | 0.088 | 0.0906 | 0.0799
